Results: the supplement of paper PMC4967469
The IC50 comes from the fitted curve, where viability falls to half of the control; where the fit passes the top or lowest dose, that dose stands as a limit. AUC is the area under the same curve over the 256-fold range up to the top dose, as a fraction; the more sensitive the line, the further below 1. For part of these data: An inferred top dose was derived from the fitted curves, not read from the paper. For part of these data: Drugs with an entry number were screened twice under separate entries, and the two screens often disagree.

Legend:
Assay in all cases: Viability of human cancer cell lines after 72 h of drug (GDSC screen)
ZM-447439 = compound: COc1cc2c(Nc3ccc(NC(=O)c4ccccc4)cc3)ncnc2cc1OCCCN1CCOCC1 [ZM-447439]; conditions: top dose inferred
Description: (§1)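 Human cancer cell lines in 384-well plates, medium with 10% serum, drug for 72 h over a 256-fold dose range (nine 2-fold or five 4-fold steps up to the top dose). Adherent lines were fixed and stained with the nucleic acid dye Syto60, suspension lines read with resazurin; signal relative to control wells, capped at 0 and 100%. One two-parameter sigmoid per drug and line, fitted in a mixed model over all curves with the slope shared within a line.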

PD-0332991 = compound: CC(=O)c1c(C)c2cnc(Nc3ccc(N4CCNCC4)cn3)nc2n(C2CCCC2)c1=O [PD-0332991]
Description: as §1

AZD6244 = compound: Cn1cnc2c(F)c(Nc3ccc(Br)cc3Cl)c(C(=O)NOCCO)cc21 [AZD6244]; conditions: screen: GDSC drug entry 1062
Description: as §1

Cell Line | AUC (ZM-447439) | IC50 (ZM-447439) [µM] | AUC (PD-0332991) | IC50 (PD-0332991) [µM] | AUC (AZD6244) | IC50 (AZD6244) [µM]
EJM (lymphoid neoplasm, semi-adherent, top dose 4 µM) | 0.981 | > 4 | 0.992 | > 4 | 0.992 | > 4
EM-2 (chronic myeloid leukaemia, suspension, top dose 4 µM) | 0.689 | 0.914 | 0.633 | 0.612 | 0.975 | > 4
EMC-BAC-1 (lung adenocarcinoma, adherent, top dose 4 µM) | 0.875 | > 4 | 0.867 | > 4 | 0.95 | > 4
EMC-BAC-2 (lung adenocarcinoma, adherent, top dose 4 µM) | 0.914 | > 4 | 0.72 | 1.2 | 0.972 | > 4
ES1 (Ewing sarcoma, adherent, top dose 4 µM) | 0.923 | > 4 | 0.513 | 0.271 | 0.985 | > 4
ES3 (Ewing sarcoma, adherent, top dose 2 µM) | 0.699 | 0.47 | 0.653 | 0.341 | 0.778 | 0.853
ES4 (Ewing sarcoma, adherent, top dose 4 µM) | 0.878 | > 4 | 0.76 | 1.61 | 0.936 | > 4
ES5 (Ewing sarcoma, adherent, top dose 4 µM) | 0.719 | 1.15 | 0.635 | 0.625 | 0.938 | > 4
ES6 (Ewing sarcoma, adherent, top dose 4 µM) | 0.981 | > 4 | 0.755 | 1.66 | 0.981 | > 4
ES7 (Ewing sarcoma, adherent, top dose 4 µM) | 0.698 | 0.913 | 0.51 | 0.267 | 0.984 | > 4
ES8 (Ewing sarcoma, adherent, top dose 4 µM) | 0.865 | 3.09 | 0.631 | 0.559 | 0.964 | > 4
ES-2 (ovary, adherent, top dose 4 µM) | 0.896 | 3.89 | 0.576 | 0.392 | 0.726 | 0.996
ESO26 (oesophagus, adherent, top dose 4 µM) | 0.945 | > 4 | 0.981 | > 4 | 0.979 | > 4
ESO51 (oesophagus, semi-adherent, top dose 4 µM) | 0.845 | > 4 | 0.853 | > 4 | 0.607 | 0.557
ESS-1 (endometrium, adherent, top dose 4 µM) | 0.893 | 3.92 | 0.97 | > 4 | 0.982 | > 4
ETK-1 (biliary tract, adherent, top dose 4 µM) | 0.969 | > 4 | 0.765 | 1.65 | 0.944 | > 4

Cell Line | AUC (ZM-447439) | IC50 (ZM-447439) [µM] | AUC (PD-0332991) | IC50 (PD-0332991) [µM] | AUC (AZD6244) | IC50 (AZD6244) [µM]
EVSA-T (breast, adherent, top dose 4 µM) | 0.901 | 3.9 | 0.941 | > 4 | 0.991 | > 4
EW-1 (Ewing sarcoma, semi-adherent, top dose 4 µM) | 0.964 | > 4 | 0.889 | 3.92 | 0.983 | > 4
EW-3 (Ewing sarcoma, adherent, top dose 4 µM) | 0.966 | > 4 | 0.805 | 2.37 | 0.966 | > 4
EW-7 (Ewing sarcoma, semi-adherent, top dose 4 µM) | 0.949 | > 4 | 0.974 | > 4 | 0.963 | > 4
EW-11 (Ewing sarcoma, adherent, top dose 4 µM) | 0.972 | > 4 | 0.772 | 2 | 0.981 | > 4
EW-13 (Ewing sarcoma, suspension, top dose 4 µM) | 0.965 | > 4 | 0.975 | > 4 | 0.98 | > 4
EW-18 (Ewing sarcoma, suspension, top dose 4 µM) | 0.86 | 3.72 | 0.946 | > 4 | 0.95 | > 4
EW-22 (Ewing sarcoma, adherent, top dose 4 µM) | 0.847 | 2.78 | 0.846 | 2.75 | 0.988 | > 4
EW-24 (Ewing sarcoma, semi-adherent, top dose 4 µM) | 0.993 | > 4 | 0.992 | > 4 | 0.991 | > 4
EoL-1-cell (haematopoietic neoplasm, suspension, top dose 4 µM) | 0.537 | 0.311 | 0.604 | 0.465 | 0.957 | > 4
FADU (head and neck, adherent, top dose 4 µM) | 0.963 | > 4 | 0.843 | 2.68 | 0.981 | > 4
FLO-1 (oesophagus, adherent, top dose 4 µM) | 0.878 | > 4 | 0.71 | 1.3 | 0.802 | 3.13
FTC-133 (thyroid, adherent, top dose 4 µM) | 0.868 | > 4 | 0.951 | > 4 | 0.853 | 3.63
FU97 (stomach, adherent, top dose 4 µM) | 0.973 | > 4 | 0.847 | 3.08 | 0.986 | > 4
FU-OV-1 (ovary, adherent, top dose 4 µM) | 0.961 | > 4 | 0.974 | > 4 | 0.892 | > 4
Farage (B-cell lymphoma, suspension, top dose 4 µM) | 0.941 | > 4 | 0.933 | > 4 | 0.99 | > 4
